Whole data set: some 33,000 sequences, median “E-score (-0.5 to 0.5)” near -0.016, cut for the highest 2% near 0.32. Some of the results follow.
molecular target: T1, Stp1 (UniProt B3LFK1); test: PBM E-score (8-mer binding enrichment) (E-score (-0.5 to 0.5)); higher = stronger / more preferred TF binding; most listed sequences are background and not binding sites; details: protein concentration: 200 nM; construct: GST-full length
T1 sequence: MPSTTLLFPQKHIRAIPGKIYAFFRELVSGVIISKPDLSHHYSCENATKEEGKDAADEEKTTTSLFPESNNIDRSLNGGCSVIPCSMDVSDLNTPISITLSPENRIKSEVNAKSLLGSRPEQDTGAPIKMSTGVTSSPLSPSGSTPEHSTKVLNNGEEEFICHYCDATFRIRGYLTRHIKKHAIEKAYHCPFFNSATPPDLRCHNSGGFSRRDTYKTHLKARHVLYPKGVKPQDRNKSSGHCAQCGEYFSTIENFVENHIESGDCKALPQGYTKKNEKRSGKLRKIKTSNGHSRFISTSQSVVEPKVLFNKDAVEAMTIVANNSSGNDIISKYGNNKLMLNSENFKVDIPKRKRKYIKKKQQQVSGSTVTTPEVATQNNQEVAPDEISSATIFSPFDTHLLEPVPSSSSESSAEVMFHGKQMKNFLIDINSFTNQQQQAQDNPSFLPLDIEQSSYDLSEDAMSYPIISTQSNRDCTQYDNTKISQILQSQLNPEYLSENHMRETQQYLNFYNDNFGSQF
Procedure: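 Universal 'all 10-mer' protein binding microarrays (Agilent AMADID 015681) probed with GST-tagged S. cerevisiae TFs (full-length or DBD) made by in vitro transcription/translation (PURExpress), about 100-200 nM. Bound TF was detected with fluorescent anti-GST. Each ungapped 8-mer (which stands for itself and its reverse complement) is scored by the PBM enrichment score (E-score), a modified Wilcoxon-Mann-Whitney statistic from -0.5 to +0.5, computed with the Universal PBM Analysis Suite. Scale: above 0.35 generally sequence-specific binding.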

| Sequence | PBM E-score |
| --- | --- |
| ACTTCTGA | 0.0118 |
| GTAAGCTA | 0.0598 |
| GGGGATGA | -0.308 |
| ACGACCTG | -0.222 |
| CCCACACA | -0.0354 |
| TAAGCCGA | 0.0486 |
| AAGTGAGC | -0.2 |
| TGTGTCAA | 0.00654 |
| CAGGACGC | -0.118 |
| CAAATATA | 0.0205 |
| CTTCTCCA | -0.3 |
| AGTTCCCA | 0.0319 |
| AGGGTCCG | -0.212 |
| ACAGGTGA | -0.0536 |
| CATATCGG | -0.136 |
| CGCGATGC | 0.012 |
| GACGATGA | 0.129 |
| CCGCGTTC | 0.303 |
| GTCCTGGA | -0.399 |
| ACCTGTAT | -0.0106 |
| AAAATCGG | 0.00058 |
| GCCCGCGA | -0.125 |

| Sequence | PBM E-score |
| --- | --- |
| AGCGGTAG | -0.193 |
| CAGGGGGC | -0.0376 |
| AACTCACC | -0.19 |
| ACAATCTC | -0.0714 |
| ATAGAAGC | 0.196 |
| CGTAGAAC | -0.0229 |
| ACTGGCCG | -0.0611 |
| AGGATGTA | -0.0745 |
| GAAAAATC | 0.0179 |
| CTGTCTAC | -0.0878 |
| GACGTTTA | -0.116 |
| GCAACGGA | 0.228 |
| GTTTGAGA | -0.0325 |
| CAGTACCG | 0.101 |
| TAAGCAAA | 0.105 |
| AATACCCA | -0.123 |
| AAACAAGG | 0.0129 |
| GGGACCGA | -0.273 |
| GGTATTAC | -0.0377 |
| CGTACTGC | -0.0413 |
| AATTGCAC | 0.0342 |
| AGTTCCAA | -0.0924 |

| Sequence | PBM E-score |
| --- | --- |
| TATTTAAA | 0.234 |
| GTAAGACA | 0.0113 |
| AGTGTTGA | 0.16 |
| AAGTGATG | -0.0746 |
| AGGGGCAA | -0.0456 |
| AGTCTAGG | -0.261 |
| CAGGGTTC | -0.226 |
| CATTGGGG | -0.274 |
| AAAGCGAA | 0.128 |
| ATCCATTC | 0.0802 |
| CACTCAGC | -0.212 |
| CCATTTAA | 0.214 |
| ATCCTTGG | 0.0305 |
| AGAAAAAA | 0.117 |
| AATTCGAG | -0.0539 |
| GCACCGAA | 0.238 |
| ACGAAACC | 0.174 |
| CAGGTCGA | -0.112 |
| GGATTCGA | -0.244 |
| AAGTTGAG | 0.00627 |
| AAGACTGT | -0.159 |
| ACTTCTCG | -0.00132 |

| Sequence | PBM E-score |
| --- | --- |
| AACTCGTC | -0.0438 |
| GTGTCAGA | -0.0659 |
| GTACTGCA | -0.213 |
| ACTGCTCT | -0.179 |
| GACCAATC | 0.016 |
| AGGGGGTC | -0.329 |
| ATGGCCTA | 0.0402 |
| ATTAACGG | 0.134 |
| GTTGAGAA | 0.0583 |
| GACGTGCC | 0.238 |
| TCCCTGCA | -0.188 |
| GGACGTCC | -0.145 |
| CCCCAACC | -0.208 |
| CTACATCC | -0.00074 |
| CATAAGTC | -0.0464 |
| CAGTACAC | -0.00593 |
| AATAGTGC | 0.182 |
| CCCGGGAG | -0.264 |
| GATTTCGA | 0.0525 |
| CAGAACAG | -0.0941 |

Source: the supplement of paper PMC3334620
